Source: patent publication US20260137795A1, “EXATECAN IMMUNOCONJUGATES” (Immunome, Inc., priority 2023, published 2026)

Tests used:
Hu/Cy/Rh ROR1 - His = target: T1, Hu/Cy/Rh ROR1 - His (Homo sapiens, UniProt Q01973); experiment: Biochemical binding to purified protein measured by SPR; parameters: species or system human/cyno/rhesus
T1 construct: His
Procedure: (§1) An initial assessment of antibody developability was performed by AC-SINS to evaluate the potential for self-interaction (FIG. 19). […] TABLES 1-4 provide this antibody characterization data in comparison to the known ROR-1 binding antibody UC961 including tabled results for biochemical binding to purified proteins and measured by SPR (TABLES 1-4), cellular binding to ROR-1 positive cell lines JeKo-1 and MDA-MB-468 (EC50) (TABLE 5), and cellular internalization (% internalized) (TABLE 6).

Mouse ROR1 - His = target: T2, Mouse ROR1 - His (Mus musculus, UniProt Q9Z139); experiment: as above
T2 construct: His
Procedure: as §1

[1] = target: T3, ROR-1 positive cell line JeKo-1 (Homo sapiens, UniProt Q01973); experiment: Cell binding saturation assay (flow cytometry, MFI); conditions: FIG. 16
T3 construct: endogenous in cells; host or cells: JeKo-1
Description: FIG. 16 illustrates a measurement of cell binding saturation data for the anti-ROR-1 antibodies generated by the methods described herein. […] Cells were washed, stained with secondary antibody and cell binding saturation was detected by flow cytometry and reported as mean fluorescent intensity (MFI).
A cell binding saturation assay was developed to evaluate how well the anti-ROR-1 antibodies developed in Example 16 bound to endogenously expressed extracellular ROR-1 protein on cell lines. […] Briefly, two ROR-1 positive cell lines. JeKo-1 and MDA-MB-468, were incubated in a titration series concentration of each antibody construct. Cells were then washed and subjected to secondary antibody staining and detection by flow cytometry. Mean fluorescence (MFI) was determined by analysis on cytometer software. […] (See FIG. 16).

T2 sequence (Q9Z139 30-937): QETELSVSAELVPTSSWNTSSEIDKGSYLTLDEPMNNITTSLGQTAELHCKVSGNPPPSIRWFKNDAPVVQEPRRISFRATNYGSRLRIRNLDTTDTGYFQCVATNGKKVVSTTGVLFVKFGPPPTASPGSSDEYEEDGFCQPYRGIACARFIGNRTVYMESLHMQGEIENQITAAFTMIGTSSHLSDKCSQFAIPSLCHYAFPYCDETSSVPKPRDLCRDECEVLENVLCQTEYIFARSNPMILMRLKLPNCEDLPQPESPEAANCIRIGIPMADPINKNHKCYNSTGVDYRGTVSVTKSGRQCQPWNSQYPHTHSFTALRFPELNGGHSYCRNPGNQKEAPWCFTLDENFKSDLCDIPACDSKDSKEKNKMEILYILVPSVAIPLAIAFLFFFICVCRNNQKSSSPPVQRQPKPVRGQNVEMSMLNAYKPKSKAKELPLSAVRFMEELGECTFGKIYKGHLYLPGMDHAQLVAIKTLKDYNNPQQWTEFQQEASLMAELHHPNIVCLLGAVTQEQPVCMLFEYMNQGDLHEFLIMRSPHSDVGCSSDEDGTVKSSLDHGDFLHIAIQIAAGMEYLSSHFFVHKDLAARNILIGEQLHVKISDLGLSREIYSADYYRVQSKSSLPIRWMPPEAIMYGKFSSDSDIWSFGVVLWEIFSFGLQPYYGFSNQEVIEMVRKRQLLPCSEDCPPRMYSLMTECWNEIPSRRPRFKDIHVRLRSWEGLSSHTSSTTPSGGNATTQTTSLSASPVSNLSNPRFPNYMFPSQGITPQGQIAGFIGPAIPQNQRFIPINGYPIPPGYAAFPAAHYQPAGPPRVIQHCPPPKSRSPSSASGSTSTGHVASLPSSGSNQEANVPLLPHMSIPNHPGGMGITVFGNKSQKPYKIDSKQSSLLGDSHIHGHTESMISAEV

- Rmax (Hu/Cy/Rh ROR1 - His): 341.6 RU
- ka (Hu/Cy/Rh ROR1 - His): 270000 M⁻¹ s⁻¹
- kd (Hu/Cy/Rh ROR1 - His): 0.00295 s⁻¹
- Rmax (Mouse ROR1 - His): 73.5 RU
- ka (Mouse ROR1 - His): 29200 M⁻¹ s⁻¹
- kd (Mouse ROR1 - His): 0.00132 s⁻¹
- cell binding saturation compared to UC961 [1]: comparable
- concentration needed to achieve binding saturation compared to UC961 [1]: improved
B1: ATX-P-885: anti-ROR-1 monoclonal antibody, IgG1; heavy chain SEQ ID NO: 21, kappa light chain SEQ ID NO: 28 (antibody)
heavy: QVQLQQWGAGLLKPSETLSLTCAVYGGSFSGYYWSWIRQPPGKGLEWIGEINHSGSTNYNPSLKSRVTISVDTSKNQFSLKLSSVTAADTAVYYCAREGVYEDYWGQGTLVTVSSASTKGPSVFPLAPSSKSTSGGTAALGCLVKDYFPEPVTVSWNSGALTSGVHTFPAVLQSSGLYSLSSVVTVPSSSLGTQTYICNVNHKPSNTKVDKRV[gap - human IgG1 Fc]
light: EIVLTQSPATLSLSPGERATLSCRASQSVSNYLAWYQQKPGQAPRLLIYDAYNRATGIPARFSGSGSGTDFTLTISSLEPEDFAVYYCQQRSNWPLTFGQGTRLEIKRTVAAPSVFIFPPSDEQLKSGTASVVCLLNNFYPREAKVQWKVDNALQSGNSQESVTEQDSKDSTYSLSSTLTLSKADYEKHKVYACEVTHQGLSSPVTKSFNRGEC
